Data as given in the supplement of paper PMC12632987.
Over roughly 1,800 sequences, “median log2 fold change of GCK-ALFA target abundance (FLAG IP / Myc IP barcode read proportion)” has its median near 0.14; the lowest 2% begin near -0.84. The list shows a part of the results.

T1: TRAF2, Q12933
T1 chain: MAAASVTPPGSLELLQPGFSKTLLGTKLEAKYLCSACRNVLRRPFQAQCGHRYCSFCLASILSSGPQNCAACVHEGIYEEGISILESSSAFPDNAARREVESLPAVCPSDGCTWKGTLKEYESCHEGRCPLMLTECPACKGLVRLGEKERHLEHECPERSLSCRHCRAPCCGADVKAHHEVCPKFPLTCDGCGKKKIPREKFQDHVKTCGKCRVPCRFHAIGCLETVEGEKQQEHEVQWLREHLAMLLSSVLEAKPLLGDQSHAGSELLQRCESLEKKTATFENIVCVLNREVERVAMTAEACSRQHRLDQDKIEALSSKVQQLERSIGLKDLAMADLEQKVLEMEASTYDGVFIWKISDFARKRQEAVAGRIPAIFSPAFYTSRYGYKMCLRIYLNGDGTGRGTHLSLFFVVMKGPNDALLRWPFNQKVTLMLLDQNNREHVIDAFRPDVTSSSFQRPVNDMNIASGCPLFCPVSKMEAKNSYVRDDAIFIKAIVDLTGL

B1: traf2_out_20_3_2244 (protein)
chain: SALEAQLQAALDALAAQLDALAPALPADDAARLRALLDAARAAYQTDKTDALVALSELRRALLELAERARAAGDAATAAALEAAADLANRAMQLVYQLIE
B2: traf2_out_12_187_952 (protein)
chain: SVEEELLRAAEEAVRQAKRRLEKHKGEDPFVQELLEKLEELEELLKKHPEIAADLLVAASAIIRYMDLVEEGAPAEEIEAAREEAERLLEEALEEAEKLL
B3: traf2_out_18_3_1895 (protein)
chain: KEEELKKVSEEIDKIIDEVTARAREVLDRLAAEHPEVAAEVDALRADLEAGAGPFGILEELARLARRAGDEEEAAEIEAFLKEKRKELSKLVEKYEELLK
B4: traf2_out_20_38_2006 (protein)
chain: SEEEEEEKRLQKIIDAANEELDRWEKEIEELRAEGKSVEEIAEIAKKRIREMLTAAGLEEEAEELIAQVDTVLDSPDAERAIARILARAAALVTQKKLQE
B5: traf2_out_11_169_788 (protein)
chain: EEREKNRKFNDHALELEDKAKEELKKFALALAKEHGLDVEAVKAIFEENKGKSLSAIAAALIAYFTAQGDEEAAAAVLAKYEELKEKINKEGSKFLKELE
B6: traf2_out_19_16_1989 (protein)
chain: SKEEAEKLKKEMNKYLDEALELAKEAVENLDELSREELMDKLVEISELMRKAKELLQKYLELNKDDEEERKKVTEEFDKKYDEIMKLMTIIVKKIEELLK
B7: traf2_out_14_149_1242 (protein)
chain: SAEAKLYKAAAELAEEIAKALEEALKLLDAGKVEEAKKLLEETIKKLEERGKEAGISISGIFVLEHILELLDKDPEAAKAAAEEALKRAKSAAEAFKSLA
B8: traf2_out_5_63_2337 (protein)
chain: SERERLTALAREADRAVREIADALKAGDEEKARALVEEVAKDPELLRTALGIAKAELKYASLDPSLAEEKAIWQKLVELLEEAKARRAEEEAAAAEAAAA
B9: traf2_out_20_38_2032 (protein)
chain: SEEEEEERRLEEAIEVANEAYDRYTARFEEWQAAGKTVEEIAEETKKEVKELLEKAGLEEEAKILIEDIDLALSSPDAVRLLVRILARAEALVWQKEKEK
B10: traf2_out_20_38_2018 (protein)
chain: SEEEEEKEKEEKLIEHAREAYDEAEAWVARLVAEGKSVEEIAEEAKKRIKELLTKHGLEEEAKELIEDVDRVLDSPDALRLIVRILARAETLVFQKELQK
B11: traf2_out_6_156_2390 (protein)
chain: MLEEILKKAKEEIEKLIKEMSKASEEKKISYINKIAGVVYNALQKAREAGASLEELKKLSEELLKHLEEEAKKYGLDEDTKNLLLSSINAVFDVALEEAK
B12: traf2_out_1_27_1007 (protein)
chain: SDEEFRALLREADRALGSLSPEEALAAAREAVRRALARGVGEARHLAVVLVLSQADDELAEALLEAIEEVLREAGVSQEEIDEIRRRAESGRARLKKARA
B13: traf2_out_13_95_1128 (protein)
chain: SKETAEKIMEIADEMLDRVEALLEALLAEARAAGVGVAEVEEALHLARNRSVNEAIALLRELAARLPEFRAAFDATIAEIEAIRREAGRKVAEIIKEEKE
B14: traf2_out_16_171_1434 (protein)
chain: SKEEEEKKLKEEIEKDAKELIERMETAVEMTPLISKETGLTKEQIAAGFRSTMTDRIEALRKHYLEKAKDMSEEVKKFIEEQIAKVEAALDEAVAKILAL
B15: traf2_out_17_178_1718 (protein)
chain: SKEEKRKLISELTDELIDLSEEAAQRLLDLARAEGTLTPEELAALEAARRRGSNNDTLALGRRIAPKLKSRAEAEALLAEFEERSRELAKKIAEAYKEYE
B16: traf2_out_12_50_975 (protein)
chain: SEEEEEEEENERFREEADRILEKRDELWKETGGDVEKFAEKLLEIAKKSLEDAKLALRVARAKLSELLQRGEDTSVIAKAIDEIEKILEELEEKEEAAKA
B17: traf2_out_11_155_754 (protein)
chain: SEKQKLINEMNDKIMEIYDKAREEVDKLLEETAKKYPEHKEKIEKLKEETKSFSPKTYMLKALELMKELGLEEEAKKIEEIIEKTQKEASKIVIETEKKL
B18: traf2_out_11_169_797 (protein)
chain: EEAEKNRELNDFALELNDKAKEELLKHALELAKKEGLDVKEVEKIYEKNKNRSLSAVASALIKYFKSKGAEKAAKAVLEKYEELKDKINKEFTEKMKELE
B19: traf2_out_17_162_1606 (protein)
chain: GELEKEKEEIKKLLEELKKKLKELEEKLKRIKELSKEELTDLLVEASEARRKALEALERVKELKDLLDEEEYEKLATELEEIAERFQRLANEFYKELEKK
B20: traf2_out_17_178_1688 (protein)
chain: SKEEERKKISELTDKLIDLTVATGEALLARAEAEGTLSPEELAALRAAIRRGSNRTFEALAARAAPRLADAAAAAAALDAWKAEAAALSKEIAAAYEKYE
B21: traf2_out_14_149_1266 (protein)
chain: SKVEEVAERVLELLKEVVEQAKKAIETGTQEALEALYKKIKEAAEEMKKLGEEIGVSLSEVFRLEHLASQKDLPLEERLKELEEILERAEVTMEFLKREA
B22: traf2_out_13_95_1157 (protein)
chain: SAELAKKIMEIADEMLDRSLAVLDALLAKAKAAGKLEAEVAEARHLAETRSINEAIAKLRELAKAHPEFKAELDAAIAELEALRREAGRKVAELIKEEEE
B23: traf2_out_17_162_1531 (protein)
chain: SMLEEKLKKLEEELEKLKKKLKELKKKLEEIENMSKEELSDLLVEASEARREARKLAEELKKLKKEIGEEKAEKLIKEAEKIAEELQRIANELYKELEKK
B24: traf2_out_17_178_1716 (protein)
chain: SKEEYRKKISELTDELIDLAEEAAARLLALAEAEGRLSPEELAALREARRRGSPNDTLALGRRIAPKLSSQAEAQALLDDFEKKSRELAKKIAEAYEKYE
B25: traf2_out_19_16_1971 (protein)
chain: AEAELAALEAELKAIEARVEALEKYFEENEETLTREEVSDLLVEASELKRRAREIRERLATLTDWDPARVGALRARAEAIERRAQRLMNRLVEKYEELLK
B26: traf2_out_5_63_2361 (protein)
chain: SERDRLTALAREADRLVRELLAAAAAGDEARVQALIDRAVADPELARLVLGILRGEARYYELLGDKPEEAARAAALAARLEAAMAAREAEAAAAAAAAAA
B27: traf2_out_13_95_1202 (protein)
chain: SEEKTKKIREVTNEIADELLDFAEETAEKVEKETGKAEHRDRILAALNGRGVSAAIEVLRELAAEDPEHAEIYNKAAEELEEKRREAGKKFAEKLKEIEE
B28: traf2_out_18_167_1862 (protein)
chain: SEELKKELEEVTDELVRVSAIRRVFLEALQALEESREAAKALLEAAVAEFPDSEELRAALEVLRTESPEAFKAFLEEQIERLQKRANELYKKREELEKKL
B29: traf2_out_17_162_1648 (protein)
chain: SSVEEELREFERELEELERELERLRERLERLAELSREELSDLLVEASELRRRARELLQRIEEHKDLLPEERYEELRRRAEEIEREAQRIAQAFYDAYLAK

Target: T1, TRAF2, Q12933
Assay: median log2 fold change of GCK-ALFA target abundance (FLAG IP / Myc IP barcode read proportion) (log2 ratio); each designed protein is fused to an ALFA-tag nanobody in HEK293 cells to bring the named protein to FLAG-tagged glucokinase (GCK); Myc marks an untargeted standard; higher = target protein stabilised (more abundant)
Details: target protein: 3xFLAG-MCP-GCK-ALFA reporter; HEK293 landing pad (RPLP)
Summary of the method: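 Binders fused to an ALFA nanobody were recombined as a library into HEK293 landing-pad cells, which were induced with 2 μg mL^−1 doxycycline and then transfected to express a FLAG-tagged target and a Myc-tagged standard. After 48 h, circular RNA barcodes recovered by anti-FLAG and anti-Myc immunoprecipitation of lysates were reverse transcribed, amplified and sequenced. Each binder's target abundance is the median log2 ratio of FLAG to Myc barcode read proportions, from barcodes present at ≥10^−7 in both replicates, binders carrying ≥3 barcodes per replicate, a 10^−6 pseudocount and pooled replicates.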

Question: With B1 as the binder, how does the “median log2 fold change” value read?
Answer: 0.244

Question: Which “median log2 fold change” value does the source give for B2 here?
Answer: 0.133

Question: With B3 as the binder, how does the “median log2 fold change” value read?
Answer: -0.142

Question: How did the “median log2 fold change” value turn out when B4 was run?
Answer: -0.29

Question: How did the “median log2 fold change” value turn out when B5 was run?
Answer: 0.249

Question: Which “median log2 fold change” value does the source give for B6 here?
Answer: 0.137

Question: Which “median log2 fold change” value does the source give for B7 here?
Answer: -0.0513

Question: With B8 as the binder, how does the “median log2 fold change” value read?
Answer: 0.16

Question: B9 was tested. Which “median log2 fold change” value did it give?
Answer: -1.23

Question: With B10 as the binder, how does the “median log2 fold change” value read?
Answer: 0.14

Question: Which “median log2 fold change” value does the source give for B11 here?
Answer: 0.184

Question: Which “median log2 fold change” value does the source give for B12 here?
Answer: 0.0385

Question: B13 was tested. Which “median log2 fold change” value did it give?
Answer: -0.586

Question: Which “median log2 fold change” value does the source give for B14 here?
Answer: 0.346

Question: How did the “median log2 fold change” value turn out when B15 was run?
Answer: 0.278

Question: How did the “median log2 fold change” value turn out when B16 was run?
Answer: 0.249

Question: For B17, which “median log2 fold change” value is on record?
Answer: 0.272

Question: For B18, which “median log2 fold change” value is on record?
Answer: -0.136

Question: For B19, which “median log2 fold change” value is on record?
Answer: -0.311

Question: With B20 as the binder, how does the “median log2 fold change” value read?
Answer: 0.103

Question: With B21 as the binder, how does the “median log2 fold change” value read?
Answer: 0.225

Question: B22 was tested. Which “median log2 fold change” value did it give?
Answer: -0.558

Question: Which “median log2 fold change” value does the source give for B23 here?
Answer: 0.168

Question: B24 was tested. Which “median log2 fold change” value did it give?
Answer: 0.15

Question: How did the “median log2 fold change” value turn out when B25 was run?
Answer: 0.184

Question: How did the “median log2 fold change” value turn out when B26 was run?
Answer: 0.0818

Question: B27 was tested. Which “median log2 fold change” value did it give?
Answer: -0.0422

Question: With B28 as the binder, how does the “median log2 fold change” value read?
Answer: 0.26

Question: B29 was tested. Which “median log2 fold change” value did it give?
Answer: 0.205
